# Data from the RNAGym collection of RNA variant scans (doi:10.1073/pnas.2313332121).
# Variants at the background level are over-represented here.
# B1: TPR 5TU (parent)
# chain: GGAUCUUCUCGAUCUAACAAAAAAGACAAAUCUGCCACAAAGCUUGAGAGCAUCUUCGGAUGCAGAGGCGGCAGCCUUCGGUGGCGCGAUAGCGCCAACGUUCUCAACUAUGACACGCAAAACGCGUGCUCCGUUGAAUGGAGUUUAUCAUG
# Variants of: B1
# Assay: polymerase ribozyme fitness, log enrichment relative to wild type (log ratio); higher = more active; in vitro selection for triplet polymerase activity
# Method in brief: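 Both subunits of a heterodimeric triplet polymerase ribozyme were given their own mutant library, built by PCR and transcribed. Each library was annealed with a biotinylated primer, the partner subunit and triplets, incubated frozen at −7 °C, and its extended constructs gel-excised, captured on streptavidin beads and amplified by RT-PCR, all in one round done in triplicate. Fitness is the logarithm of genotype enrichment relative to wild-type enrichment, with replicates averaged by inverse-variance weighting. That logarithm is base 2, and Illumina-sequenced genotypes needed ≥10 input reads and ≥1 read per output.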
row,Variant,polymerase ribozyme fitness (log ratio)
1,A3U A28C C57A C93U G133U,≤ -4.2
2,A3G A22C A23G C36A C75U C95A A97G A120U,≤ -4.2
3,A3G A30U U61A G70C C93A,≤ -4.2
4,A3C U6A C35A C95U U102C C103G G143U,≤ -4.2
5,A3G C51U C85G C87U,≤ -4.2
6,A3G C14G U33A U55A G81A U134A,≤ -4.2
7,A3C G68U C87A U144C,≤ -4.2
8,A3U C18U G88A C93G U139G A147C,≤ -4.2
9,A3U C18G A47G U61G A91U A97G,≤ -4.2
10,A3G A16C G50A C54G C99G,≤ -4.2
11,A3U C36A U55A G92A C96G G126C U144C,≤ -4.2
12,A3U A60G U77C G83A G88U U104C A122C,≤ -4.2
13,A3U C43G C85G A91U C93G,≤ -4.2
14,A3C U4G U77A G84A A107C,≤ -4.2
15,A3G A91C C103G C108U,≤ -4.2
16,A3C U7G C14U A19G A26G A49C C87G A137G U144G,≤ -4.2
17,A3G A20G A29G C79U G80A G81A G140C C149A,≤ -4.2
18,A3C A28C C38A G80U G88U C99A,≤ -4.2
19,A3U A24G G46A U53A U109G,≤ -4.2
20,A3U A21G A24C U33G C54G G133C,≤ -4.2
21,A3G C87U,-0.743

row,Variant,polymerase ribozyme fitness (log ratio)
1,A3G C38U G83C C132A,≤ -4.2
2,A3U A16U A17G A23C C93U A106G A122G U139G,≤ -4.2
3,A3C C8G C93G A97U U148G,≤ -4.2
4,A3C C87G,-3.29
5,A3G C87U C132G,-4.07
6,A3C G25C C69U U77G G84A A107G C132U,≤ -4.2
7,A3G A20C A41U A47C U77G U139A A150U,≤ -4.2
8,A3U A28C C75G,≤ -4.2
9,A3U A21C G62C C63U A73U C79U G84A C93G A106U U145G,≤ -4.2
10,A3U A20U A41G A49G A64U C108G,≤ -4.2
11,A3U C43G,≤ -4.2
12,A3U C51A G124C,-2.87
13,A3G C10G G34A G83A C105U C129G G143C,≤ -4.2
14,A3G U9G G42U C85G,≤ -4.2
15,A3U A23U C75G C85U U101C,≤ -4.2
16,A3G A97C A107G,≤ -4.2
17,A3C C27U C35G C57A G84A C87U,≤ -4.2
18,A3C A52U C85U A91U U148A,≤ -4.2
19,A3U A142C,-1.59
20,A3U C43G C85U C99U A120C G128U A147U,≤ -4.2
21,A3G A40C A49C C57G G74C C87G A89G U104G,≤ -4.2

row,Variant,polymerase ribozyme fitness (log ratio)
1,A3C C10G C14G A40G A120C A142C,≤ -4.2
2,A3C A26C A47C G48C G94C G141U,≤ -4.2
3,A3U C10U C54A U55A,-1.97
4,A3C U31G A52C U56A U61G A91C C108G A113U,≤ -4.2
5,A3C A20C C38U A41C U53A G71A C93A G94U G126C,≤ -4.2
6,A3U C72G A91U,≤ -4.2
7,A3G G34C G83U G88A C99G A121U G140U,≤ -4.2
8,A3U A30G C96A U101G A119U G152C,≤ -4.2
9,A3U A19C A52C C54U C87A G100U A115C,≤ -4.2
10,A3G G94A,-1.67
11,A3C C57U G71A U78A C85A C118U U151C,≤ -4.2
12,A3U A23C A40C C75G G83A C131A,≤ -4.2
13,A3U A22U A28G U61G G94A A98U C99A C125A U134G,≤ -4.2
14,A3U C5G C32A C43A G84A G133A,≤ -4.2
15,A3G A17C G80A G88U C96U U148A,≤ -4.2
16,A3C G48U C69U,-2.88
17,A3C A12U A37C U56G C57U G68U C75G G84A C129G,≤ -4.2
18,A3C U31G C69A C85G G141U,≤ -4.2
19,A3C G34A C57A C76A G94U G133U,≤ -4.2
20,A3G A30G C38U C79A C87G A98U C103G,≤ -4.2
21,A3U A23U U61A U78G C85U G126A,≤ -4.2

row,Variant,polymerase ribozyme fitness (log ratio)
1,A3U A23G C38U U56A G58U C87G C118A,≤ -4.2
2,A3G A22C U45C A66C G67C C93U A113U,≤ -4.2
3,A3U A28C G50A G67U A89U G141C,≤ -4.2
4,A3G C79U G88A C96A G126A G140U,≤ -4.2
5,A3U C36A C54A C87U,≤ -4.2
6,A3C U13C A52G C75G U82A G84U G92A C93G C114U,≤ -4.2
7,A3U C35A G68A G92A A97C C118U,≤ -4.2
8,A3U C14U A40U A52U G84A G112C,≤ -4.2
9,A3G C51U G71A C85U C99U G136U,≤ -4.2
10,A3G U7G C8A A20U C85A G94C A121C,≤ -4.2
11,A3G G71U C96A A107G C116U C125G,≤ -4.2
12,A3U A12U A16U G42A C76A C87A,≤ -4.2
13,A3U C8U U45G G58A G62U C63G C87A A120U,≤ -4.2
14,A3G C27U C51A G59A C85U G88A A115U G141A,≤ -4.2
15,A3G C8G A39U,≤ -4.2
16,A3C U56G C93U C114G U134A U148C,≤ -4.2
17,A3U C35A C43A A52G G88A C108G,≤ -4.2
18,A3U A47C C69A G74A U77C A89U C96G C108G,≤ -4.2
19,A3U A30U G86U C87U,≤ -4.2
20,A3C C5A A21C C27U C95U C99A U135A G143A,≤ -4.2
21,A3U A41C C75G A91C A98U U144C,≤ -4.2
